Assay results taken from the supplement of paper PMC10670038.
Values joined by “and” are separate entries in the source; they are usually repeats but may differ in a detail not shown here. Identical values can stand only once. Counter-ions that a name gives are not always drawn. ± gives the standard deviation of the averaged measurements. Whole data set: some 2,000 compounds, median “relative cell viability vs DMSO, compound + 0.2 uM CuET” near 1, cut for the lowest 2% near 0.25. Some of the results follow.

test system: TE10; experiment: relative cell viability vs DMSO, compound + 0.2 uM CuET (fraction); TE10 is an esophageal squamous carcinoma line; higher = less cytotoxic; conditions: 2 µM; co-treatment: CuET (bis(diethyldithiocarbamate)copper) 0.2 uM; 48 h
Protocol: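 TE10 ESCC cells (1,000/well, 384-well plates) were treated with Selleck bioactive library compounds at 2 uM combined with 0.2 uM CuET (copper diethyldithiocarbamate) for 48 h. Viability was read by CellTiter-Glo and expressed relative to DMSO wells. Two technical replicates (A, B).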

Compared with CC(NC(=O)C(Cc1ccccc1)NC(=O)OCc1ccccc1)C(=O)CF (stereo not given), CC(C)C[C@H](NC(=O)[C@@H](NC(=O)c1cccc(-c2ccccc2)n1)[C@@H](C)O)B(O)O is lower in relative cell viability: 1.14 ± 0.028 for the first, 0.3687 ± 0.0033 for the second.

Compared with CN(C)C(=O)C(CCN1CCC(O)(c2ccc(Cl)cc2)CC1)(c1ccccc1)c1ccccc1 [Loperamide HCl], CN(C)CCOC(C)(c1ccccc1)c1ccccn1 (stereo not given) [Doxylamine Succinate] is higher in relative cell viability: 1.03 ± 0.023 for the first, 1.28 ± 0.022 for the second.

Cc1ccccc1C(=O)Nc1ccc(C(=O)N2CCCC(O)c3cc(Cl)ccc32)c(C)c1 (stereo not given) [Tolvaptan] and CNC(=O)c1cc(Oc2ccc(NC(=O)Nc3ccc(Cl)c(C(F)(F)F)c3)c(F)c2)ccn1 [Regorafenib (BAY 73-4506)] are the same in relative cell viability: 1.05 ± 0.075 for the first, 1.05 ± 0.12 for the second.

NC(=O)c1ccc(-c2nc(-c3ccc4c(c3)OCCO4)c(-c3ccccn3)[nH]2)cc1 and C[C@]1(O)C[C@@H](c2nc(-c3ccc4ccc(-c5ccccc5)nc4c3)c3c(N)nccn32)C1 [OSI-906 (Linsitinib)] are within error of each other in relative cell viability: 0.996 ± 0.12 for the first, 1.08 ± 0.019 for the second.

First: O=C1NC(=NCc2cccs2)S/C1=C\c1ccc2ncccc2c1
Second: O=C(Nc1ccccc1C(=O)NC1CCCCNC1=O)c1cc2ccccc2s1 (stereo not given)
The relative cell viability of the first is higher: 1.12 ± 0.078 for the first, 0.955 ± 0.061 for the second.

CC(C)(C)NCC(O)COc1cccc2c1CCC(=O)N2 (stereo not given) [Carteolol HCl] and CNC[C@H](O)c1ccc(O)c(O)c1 [Epinephrine Bitartrate] are within error of each other in relative cell viability: 1.09 ± 0.13 for the first, 0.964 ± 0.065 for the second.

O=C(Nc1ccccc1-c1cn2c(CN3CCNCC3)csc2n1)c1cnc2ccccc2n1 and O=C(NCc1ccccc1)c1csc(Nc2ccncn2)n1 [Thiazovivin] are within error of each other in relative cell viability: 1.12 ± 0.22 for the first, 1.27 ± 0.18 for the second.

Going from O=C(O)c1cc(/N=N/c2ccc(O)c(C(=O)O)c2)ccc1O [Olsalazine Sodium] to O=C(CCc1ccc(O)cc1)c1c(O)cc(O)cc1O [Phloretin], the relative cell viability rises from 1.016 ± 0.0059 to 1.11 ± 0.015.

O=C(C1CCCCC1)N1CC(=O)N2CCc3ccccc3C2C1 (stereo not given) [Praziquantel] and COc1ccc([C@]2(C#N)CC[C@@H](C(=O)O)CC2)cc1OC1CCCC1 [Cilomilast] are within error of each other in relative cell viability: 1.08 ± 0.025 for the first, 1.04 ± 0.069 for the second.

Going from C[C@@H]1CCO[C@H]2Cn3cc(C(=O)NCc4ccc(F)cc4F)c(=O)c(O)c3C(=O)N12 to OC(CNCC(O)C1CCc2cc(F)ccc2O1)C1CCc2cc(F)ccc2O1 (stereo not given) [Nebivolol], the relative cell viability falls from 1.09 ± 0.059 to 0.889 ± 0.012.

Compared with COc1cc(C=CC(=O)N2CCC=CC2=O)cc(OC)c1OC [Piperlongumine], COc1cc2nccc(Oc3ccc(NC(=O)Nc4cc(C)on4)c(Cl)c3)c2cc1OC [Tivozanib (AV-951)] is higher in relative cell viability: 0.392 ± 0.035 for the first, 1.2 ± 0.016 for the second.

First: COc1ccc2c(c1)c(CC(=O)O)c(C)n2C(=O)c1ccc(Cl)cc1 [Indomethacin]
Second: COc1cccc(-c2cc(=O)c3ccccc3o2)c1N
The relative cell viability of the first is lower: 1.06 ± 0.11 for the first, 1.21 ± 0.026 for the second.

Compared with Nc1nc2ccc(OC(F)(F)F)cc2s1 [Riluzole], O=C(NCCO)c1cccc(-c2cc(Nc3ccc(OC(F)(F)F)cc3)ncn2)c1 is higher in relative cell viability: 1.062 ± 0.0062 for the first, 1.15 ± 0.042 for the second.

CN1CCC(=C2c3ccccc3CCc3cccnc32)CC1 [Azatadine dimaleate] and CN1CCN(CCCN2c3ccccc3Sc3ccc(C(F)(F)F)cc32)CC1 [Trifluoperazine 2HCl] are within error of each other in relative cell viability: 1.03 ± 0.012 for the first, 1.11 ± 0.07 for the second.

OC[C@H]1O[C@H](O[C@]2(CCl)O[C@H](CCl)[C@@H](O)[C@@H]2O)[C@H](O)[C@@H](O)[C@H]1Cl [Sucralose] and C[C@@H](O)[C@H]1C(=O)N2C(C(=O)O)=C(S[C@@H]3CN[C@H](CNS(N)(=O)=O)C3)[C@H](C)[C@H]12 [Doripenem Hydrate] are within error of each other in relative cell viability: 1.11 ± 0.16 for the first, 1.16 ± 0.21 for the second.

CNC(=O)c1cc(Oc2ccc(NC(=O)Nc3cc(C(C)(C)C)nn3-c3ccc4ncccc4c3)c(F)c2)ccn1 [DCC-2036 (Rebastinib)] and CCc1cc(Nc2nccc(-c3c(-c4ccc(OC)c(C(=O)Nc5c(F)cccc5F)c4)nc4ccccn34)n2)c(OC)cc1N1CCC(N2CCN(S(C)(=O)=O)CC2)CC1 are within error of each other in relative cell viability: 0.991 ± 0.03 for the first, 1 ± 0.058 for the second.

Compared with Nc1ccn([C@H]2CC[C@@H](CO)O2)c(=O)n1 [Zalcitabine], O=c1[nH]c(=O)n(C2CCCO2)cc1F (stereo not given) is higher in relative cell viability: 1.15 ± 0.019 for the first, 1.3 ± 0.11 for the second.

CC(C)(C#N)c1cc(Cn2cncn2)cc(C(C)(C)C#N)c1 [Anastrozole] and Cc1cc2c(F)c(Oc3ncnn4cc(OC[C@@H](C)OC(=O)[C@H](C)N)c(C)c34)ccc2[nH]1 are within error of each other in relative cell viability: 1.1 ± 0.11 for the first, 0.986 ± 0.16 for the second.

Going from C=CCNC(N)=S [Allylthiourea] to CC(S)C(=O)NCC(=O)O (stereo not given) [Tiopronin], the relative cell viability falls from 1.27 ± 0.073 to 1.1 ± 0.015.

CNC(=O)c1cccc(-c2ccc3c(N4CCOC[C@@H]4C)nc(N4CCOC[C@@H]4C)nc3n2)c1 and C[C@@H]1COCCN1c1cc(C2(S(C)(=O)=O)CC2)nc(-c2cccc3[nH]ccc23)n1 are within error of each other in relative cell viability: 0.645 ± 0.018 for the first, 0.637 ± 0.031 for the second.

Compared with CC[C@H](C)[C@H](N)C1=N[C@H](C(=O)N[C@@H](CC(C)C)C(=O)N[C@H](CCC(=O)O)C(=O)N[C@H](C(=O)N[C@H]2CCCCNC(=O)[C@H](CC(N)=O)NC(=O)[C@@H](CC(=O)O)NC(=O)[C@H](Cc3cnc[nH]3)NC(=O)[C@@H](Cc3ccccc3)NC(=O)[C@H]([C@@H](C)CC)NC(=O)[C@@H](CCCN)NC2=O)[C@@H](C)CC)CS1 [Bacitracin], CN(CC(=O)N(Cc1ccc(C2CCCCC2)cc1)c1ccc(C(=O)O)cc1)S(=O)(=O)c1c(F)c(F)c(F)c(F)c1F is lower in relative cell viability: 1.143 ± 0.0022 for the first, 0.2808 ± 0.0021 for the second.

First: CNC[C@H](O)c1ccc(O)c(O)c1 [Epinephrine HCl]
Second: CNCc1ccc(-c2cc(-c3nc(-c4ccc(S(=O)(=O)C(C)C)cc4)cnc3N)on2)cc1
The relative cell viability of the first is higher: 1.13 ± 0.03 for the first, 0.693 ± 0.048 for the second.

First: CCOC(=O)Nc1cc(-c2ccc(C)c(NS(C)(=O)=O)c2)nn2c(C)nnc12 [Bromosporine]
Second: COCC[n+]1c2c(n(Cc3cnccn3)c1C)C(=O)c1ccccc1C2=O [YM155 (Sepantronium Bromide)]
The relative cell viability of the first is higher: 0.739 ± 0.024 for the first, 0.111 ± 0.0058 for the second.

Compared with C#CC[C@H](c1nc2cc(Cl)ccc2c(=O)n1Nc1ccccc1)N(CCCN)C(=O)c1cccc(Cl)c1F, O=S(=O)(O)NC1CCCCC1 [Cyclamic  acid] is higher in relative cell viability: 0.989 ± 0.035 for the first, 1.26 ± 0.21 for the second.

With CN(C)CC(=O)Nc1ccc2[nH]c(=O)c3ccccc3c2c1 the relative cell viability was 1.14 and 1.03.
For C[C@@H]1CCN(C(=O)CC#N)C[C@@H]1N(C)c1ncnc2[nH]ccc12, the relative cell viability was 1.03 and 1.11.
